Data reported in the BET-seq Pho4 binding data (Le et al. 2018).
Some of the results follow. These are noisy estimates, calculated here from bound and input reads.

biological target: T1, Pho4 (S. cerevisiae) (UniProt P07270); test: relative binding free energy (BET-seq); higher = weaker binding; conditions: reference: library average
T1 sequence: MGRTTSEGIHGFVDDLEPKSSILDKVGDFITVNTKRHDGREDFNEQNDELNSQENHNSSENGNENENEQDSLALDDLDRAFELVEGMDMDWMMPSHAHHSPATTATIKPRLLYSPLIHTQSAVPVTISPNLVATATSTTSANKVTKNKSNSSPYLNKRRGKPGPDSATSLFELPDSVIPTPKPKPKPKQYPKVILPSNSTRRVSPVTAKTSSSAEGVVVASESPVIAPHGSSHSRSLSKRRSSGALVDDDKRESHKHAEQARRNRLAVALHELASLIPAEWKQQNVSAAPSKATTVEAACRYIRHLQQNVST

Sequence	relative binding free energy
TGGGACACGTGCAGTT	-0.03 kcal/mol
CAGTGCACGTGTGCGG	-0.25 kcal/mol
TCGCGCACGTGCGGGT	-0.19 kcal/mol
GGTGGCACGTGAAAGA	0.23 kcal/mol
GGCTGCACGTGACGGT	0.2 kcal/mol
TGGTTCACGTGCAGAG	0.29 kcal/mol
TATTTCACGTGACTTT	0.37 kcal/mol
TGGAACACGTGGAGGT	0.13 kcal/mol
TAGCCCACGTGGGGGG	-0.27 kcal/mol
CGCTTCACGTGTTGGA	0.36 kcal/mol
AGGGACACGTGGATCG	0.08 kcal/mol
GTAAACACGTGAAGGG	0.33 kcal/mol
GTGTGCACGTGAGTCG	0.16 kcal/mol
TGTGTCACGTGTACGA	0.1 kcal/mol
CTTAGCACGTGGTATG	-0.18 kcal/mol
GGTTTCACGTGGACGG	0.2 kcal/mol
TAGAGCACGTGAAGCG	0.34 kcal/mol
TGAGTCACGTGTTATG	0.08 kcal/mol
TTTGACACGTGGGACA	-0.03 kcal/mol
GTGAGCACGTGAGGCT	0.04 kcal/mol
CGATACACGTGTTTGG	0.06 kcal/mol
TTCGGCACGTGATGGC	0.02 kcal/mol
AAGGGCACGTGTTAGT	-0.02 kcal/mol

Sequence	relative binding free energy
TAGGACACGTGGCGGA	-0.01 kcal/mol
GTTTGCACGTGGGAGT	-0.1 kcal/mol
GAGTTCACGTGGCATT	0.27 kcal/mol
TGGTGCACGTGGGCAT	-0.1 kcal/mol
AATACCACGTGAGGGT	0.2 kcal/mol
GGATGCACGTGAAGTT	0.4 kcal/mol
GGCCGCACGTGTGAGG	0.11 kcal/mol
GAATTCACGTGGAGTT	0.13 kcal/mol
CGTTGCACGTGGGTAA	-0.03 kcal/mol
GGTAGCACGTGGGAAG	0.04 kcal/mol
AAGAGCACGTGTGAGG	-0.11 kcal/mol
ACTTACACGTGTTATG	0.15 kcal/mol
TATGGCACGTGTATAG	-0.04 kcal/mol
AAGGACACGTGGTTAG	-0.15 kcal/mol
GTACACACGTGAGGTG	0.21 kcal/mol
ATGAACACGTGAGTTG	0.29 kcal/mol
TTGTTCACGTGTCTGC	0.11 kcal/mol
GTCTTCACGTGTGTGC	0.33 kcal/mol
GTTTTCACGTGGGCTT	0.27 kcal/mol
TATTGCACGTGGAAAA	0.05 kcal/mol
TGGTGCACGTGAGGAT	0.2 kcal/mol
AGTGACACGTGATTGT	0.08 kcal/mol
GGTCTCACGTGTCGTG	0 kcal/mol

Sequence	relative binding free energy
AGTGTCACGTGTTGGG	0.12 kcal/mol
TTAGGCACGTGCGGTG	-0.22 kcal/mol
ATGTCCACGTGTGGTT	0.08 kcal/mol
TGTATCACGTGGAGAT	0.17 kcal/mol
GATGACACGTGGCGTT	-0.03 kcal/mol
TAATCCACGTGGAGTG	0.01 kcal/mol
TTCTACACGTGTGTGT	0.2 kcal/mol
TTTAGCACGTGTGCTG	-0.12 kcal/mol
AGTTGCACGTGTCAAT	0.04 kcal/mol
GGGGACACGTGTAGAT	0.16 kcal/mol
GCGGACACGTGGGGGG	-0.08 kcal/mol
TGTGTCACGTGGTGAA	-0.02 kcal/mol
GGGCTCACGTGTGGGG	0.41 kcal/mol
GGAATCACGTGCGTGG	0.15 kcal/mol
AAAGTCACGTGAATGT	0.37 kcal/mol
GGCTGCACGTGTTAGA	0.08 kcal/mol
TTTAGCACGTGTCATA	-0.08 kcal/mol
CCTATCACGTGGGGGT	0 kcal/mol
AGTTACACGTGAGCGG	0.23 kcal/mol
AAAGTCACGTGAGTGC	0.32 kcal/mol
TCGTGCACGTGTAAAG	0.07 kcal/mol
AGGGACACGTGAGTGG	0.22 kcal/mol
TTACGCACGTGGTGTG	-0.29 kcal/mol

Sequence	relative binding free energy
CTAGTCACGTGGTGTA	-0.03 kcal/mol
TGTTTCACGTGAACTA	0.42 kcal/mol
AGGATCACGTGAATGT	0.39 kcal/mol
TTTTCCACGTGGGAAG	0.07 kcal/mol
TTGCGCACGTGGTATA	-0.2 kcal/mol
TTGCACACGTGGTATT	0.04 kcal/mol
TAGGACACGTGAGTGG	0.16 kcal/mol
TGGGACACGTGACGAG	0.22 kcal/mol
ATTTGCACGTGTAGTG	0.14 kcal/mol
TATGCCACGTGTTGGT	-0.12 kcal/mol
AAAGTCACGTGGTAGT	0.15 kcal/mol
AGAAGCACGTGGGGCT	-0.36 kcal/mol
CTGGGCACGTGTGATG	-0.02 kcal/mol
GTGTACACGTGGAGGA	0.02 kcal/mol
TTTAGCACGTGGTTGG	-0.07 kcal/mol
GATATCACGTGTGTGG	0.15 kcal/mol
GTCTACACGTGGTTTA	0.12 kcal/mol
TGTTTCACGTGTAGGA	0.16 kcal/mol
AGTTGCACGTGATTCT	0.15 kcal/mol
CGAGTCACGTGGGTAT	-0.13 kcal/mol
TTTCTCACGTGGTCTT	0.22 kcal/mol
AGGTTCACGTGTACAT	0.27 kcal/mol
GTTCGCACGTGGTGTT	-0.06 kcal/mol

Sequence	relative binding free energy
GGTATCACGTGTAAGA	0.33 kcal/mol
GGTTTCACGTGAGTAT	0.47 kcal/mol
TCTTTCACGTGGGCAG	0.17 kcal/mol
GTCTTCACGTGCGGTT	0.23 kcal/mol
GGGATCACGTGCGCGT	0.02 kcal/mol
AGATGCACGTGTAATT	0.2 kcal/mol
GTAGGCACGTGGGTAC	-0.25 kcal/mol
AAGTTCACGTGAGGTA	0.4 kcal/mol
AAATGCACGTGTCGTG	0.02 kcal/mol
ATGAGCACGTGGGGGC	-0.27 kcal/mol
GGAGGCACGTGGATTA	0.06 kcal/mol
AGTAGCACGTGCCGGG	-0.16 kcal/mol
TGGGTCACGTGGATGC	0.13 kcal/mol
CTTGTCACGTGCGGGT	-0.01 kcal/mol
AGTGCCACGTGGTAAG	-0.11 kcal/mol
GCGTTCACGTGTACGG	0.36 kcal/mol
ATAGTCACGTGCTTAG	0.08 kcal/mol
TAGGTCACGTGCGTAG	0.09 kcal/mol
ATAGGCACGTGGATGA	-0.07 kcal/mol
CAGAGCACGTGGGGCG	-0.34 kcal/mol
TGGTCCACGTGATAGT	0.08 kcal/mol
GATGGCACGTGACGGT	0.14 kcal/mol
GGTATCACGTGATTCT	0.2 kcal/mol
